From PubChem BioAssay AID1460 (National Center for Advancing Translational Sciences (NCATS), 2008)
Out of some 270,000 compounds screened, about 5,800 (2.1%) were called active. The inconclusive results got no clear call from the source; some entries with a clear call stand among them for comparison. Calls follow the shape of the dose curve; as a rule, active = well fitted inhibition curve with a large enough effect; inconclusive = small, poorly fitted or top-dose-only effect; inactive = flat fitted curve, though single readings scatter. Potencies of inconclusive entries are doubtful fits and often do not repeat.

These compounds were tested against Microtubule-associated protein tau (Homo sapiens) (UniProt P10636) (assay: qHTS for Inhibitors of Tau Fibril Formation, Thioflavin T Binding). Conditions: recombinant tau K18 P301L (four-repeat tau fragment), heparin-induced fibrillization, ThT fluorescence; series mostly up to 57.4 µM.
In short: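 Tau K18 P301L fragment (15 uM unlabeled plus 0.24 uM Alexa 594-labeled) in 100 mM sodium acetate pH 7 with compound, fibrillization induced by 20 uM heparin for 6 hr at 37 C. Thioflavin T (30 uM) added, fluorescence read after 1 hr (ex 450, em 510 nm).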
% is scaled to controls: 0 for no effect and ±100 for the full control effect; potency is read from the fitted curve at half-maximal effect; tags tell the direction and shape of the fitted curve.
Also: nearly all actives have a fitted effect of over 55% in size.

Chain of UniProt P10636 (P10636 whole entry, looked up, the tested form may be a part): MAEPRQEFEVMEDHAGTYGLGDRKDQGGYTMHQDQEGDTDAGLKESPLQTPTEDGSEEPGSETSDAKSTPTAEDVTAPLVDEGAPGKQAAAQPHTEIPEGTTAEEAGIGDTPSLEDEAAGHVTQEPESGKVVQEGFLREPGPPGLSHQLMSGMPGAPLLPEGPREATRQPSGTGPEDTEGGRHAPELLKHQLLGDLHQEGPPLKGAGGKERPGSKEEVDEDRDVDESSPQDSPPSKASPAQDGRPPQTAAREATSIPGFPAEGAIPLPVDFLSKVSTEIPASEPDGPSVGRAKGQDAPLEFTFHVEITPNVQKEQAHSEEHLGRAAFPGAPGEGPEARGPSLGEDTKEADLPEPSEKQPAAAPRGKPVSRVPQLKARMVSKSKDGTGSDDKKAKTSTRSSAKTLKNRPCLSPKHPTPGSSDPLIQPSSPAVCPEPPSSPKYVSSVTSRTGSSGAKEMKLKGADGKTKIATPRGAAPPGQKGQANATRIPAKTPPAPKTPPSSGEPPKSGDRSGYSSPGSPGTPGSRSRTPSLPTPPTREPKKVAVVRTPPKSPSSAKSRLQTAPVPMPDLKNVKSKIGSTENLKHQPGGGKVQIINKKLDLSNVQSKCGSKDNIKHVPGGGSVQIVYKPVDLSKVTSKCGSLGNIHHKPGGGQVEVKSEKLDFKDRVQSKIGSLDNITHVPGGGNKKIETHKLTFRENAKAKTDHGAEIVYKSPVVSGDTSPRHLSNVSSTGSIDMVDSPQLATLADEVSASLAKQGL

Row | SMILES | Potency | activity, negative = inhibition
1 | CCN(CC)CCN(C(=O)c1cccc(N2C(=O)CCC2=O)c1)c1nc2cc3c(cc2s1)OCO3 | inactive | 
2 | Cn1cccc1Cc1nnc(SCC(=O)N2CCc3ccccc32)n1CCc1ccccc1 | inconclusive: 20 µM [inhibitor, single point] | 
3 | O=C(/C=C/c1ccc(Br)o1)Nc1nccs1 | inactive | 
4 | CCCCN(CC)c1nc(-c2ccncc2)nc2ccccc12 | inconclusive: 25.1 µM [inhibitor, partial curve] | 
5 | Cn1c(=O)n(C)c2cc(N3CCCCC3)c(NC(=O)Nc3ccc(Br)cc3)cc21 | inactive | 
6 | Cc1cc(=O)oc2cc(OC(C)C(=O)N3CCOCC3)ccc12 (stereo unspecified) | inactive | 
7 | O=C(COc1cccc2cccnc12)N/N=C/c1cccn1-c1ccc(F)cc1 | inconclusive: 28.2 µM [inhibitor, partial curve] | 
8 | COc1ccc(N2CCN(C(=O)NC3CC(=O)N(c4ccc(OC)cc4)C3)CC2)cc1 (stereo unspecified) | inconclusive: 17.8 µM [inhibitor, partial curve] | 
9 | COc1cc(CNc2ccccc2SC)ccc1O | inconclusive: 14.1 µM [inhibitor, partial curve] | 
10 | Clc1ccc(SCc2csc(N3CCOCC3)n2)cc1 | inconclusive: 14.1 µM [inhibitor, partial curve] | 
11 | C/C(=N\N=c1/sc2ccccc2n1C)c1ccccn1 | inconclusive: 1.41 µM [inhibitor, partial curve] | 
12 | Cc1c(NC(=O)C(C)(C)C)cccc1-c1nc2ccccc2s1 | inconclusive: 0.0251 µM [activator, full curve, poor fit] | 
13 | Cc1ccc(NCC(=O)N/N=C/c2cccc(Br)c2)cc1 | inconclusive: 20 µM [inhibitor, partial curve, poor fit] | 
14 | COc1ccc(NC(=O)CCn2cnnn2)cc1 | inconclusive: 39.8 µM [inhibitor, single point] | 
15 | O=C(NC1=NCCS1)c1cc2ccccc2o1 | inconclusive: 15.8 µM [inhibitor, partial curve] | 
16 | O=C(CN1CCN(c2ccccn2)CC1)Nc1ccc(F)cc1 | inactive | 
17 | CCCC(O)(CCC)C(=O)NN(C(=O)CCl)c1ccccc1 | inactive | 
18 | COc1cc(CN(C(=O)c2ccc(C)cc2)C2CCS(=O)(=O)C2)cc(OC)c1OC (stereo unspecified) | inactive | 
19 | Cc1cccc(-c2nnc(SCCOc3ccc4c(C)cc(=O)oc4c3)o2)c1 | inconclusive: 1.26 µM [inhibitor, full curve] | 
20 | CCNc1ccc(C(=O)OC(C(=O)NC(N)=O)C(C)C)cc1[N+](=O)[O-] (stereo unspecified) | inconclusive: 20 µM [inhibitor, single point] | 
21 | COCCN(CCOC)C(=O)c1ccc(SCc2ccc(C)cc2)c([N+](=O)[O-])c1 | inconclusive: 35.5 µM [inhibitor, partial curve] | 
22 | COC(=O)CCCC1=CC2=C(c3ccccc3)C(=O)C(C)(OC(=O)C3CCCC3)C(=O)C2=CN1CC1CC1 (stereo unspecified) | inconclusive: 8.91 µM [inhibitor, partial curve] | inactive: -6.65% [at 11.5 µM]
23 | O=C(N/N=C/c1ccc(N2CCOCC2)cc1)c1ccc(NS(=O)(=O)c2cccs2)cc1 | inconclusive: 7.08 µM [inhibitor, partial curve] | 
24 | O=C1C(c2ccncc2)=C(O)c2ccccc21 | inconclusive: 22.4 µM [inhibitor, partial curve] | 

Row | SMILES | Potency | activity, negative = inhibition
25 | O=[N+]([O-])c1ccc(O)c(NC(=S)Nc2ccccc2)c1 | inconclusive: 15.8 µM [inhibitor, partial curve] | 
26 | NS(=O)(=O)c1ccc(NS(=O)(=O)c2ccc(NC(=O)c3ccc(-c4ccccc4)cc3)cc2)cc1 | inconclusive: 11.2 µM [activator, partial curve] | 
27 | COc1ccc(C/C(C)=N/NC(=S)Nc2ccccc2)cc1 | inconclusive: 28.2 µM [inhibitor, single point] | 
28 | C/C(=N/NC(=O)c1ccncc1)C1=C(O)CC(C)(C)CC1=O | inactive | 
29 | O=C(CN1CCN(CCN2C(=O)c3cccc4cccc(c34)C2=O)CC1)c1ccc(F)cc1 | inconclusive: 7.08 µM [inhibitor, partial curve, poor fit] | 
30 | Cc1ccc(C)c(S(=O)(=O)N/N=C/c2cccnc2)c1 | inactive | 
31 | O=C(NC1CCCCCC1)C(=S)N1CCOCC1 | inconclusive: 39.8 µM [inhibitor, single point] | 
32 | COc1ccc(NC(=O)COC(=O)C2CCCCC2)c([N+](=O)[O-])c1 | inconclusive: 12.6 µM [inhibitor, partial curve] | 
33 | O=C1CC(c2ccccc2)CC(O)=C1C=NCc1ccco1 (stereo unspecified) | inactive | 
34 | O=C(CCN1C(=O)/C(=C/c2ccccc2Cl)SC1=S)NC1=NCCS1 | inconclusive: 8.91 µM [inhibitor, partial curve] | 
35 | COc1ccc([N+](=O)[O-])c(S(=O)(=O)c2ccc(Cl)cc2)n1 | inconclusive: 3.98 µM [inhibitor, full curve] | 
36 | Cc1ccc(C(=O)C[n+]2cc(Br)cc(Br)c2)cc1[N+](=O)[O-] | inconclusive: 15.8 µM [inhibitor, partial curve] | 
37 | COc1ccc(-c2ccc(CCC(=O)O)n2-c2ccccc2C(F)(F)F)cc1 | inconclusive: 22.4 µM [inhibitor, partial curve, poor fit] | 
38 | Cc1ccc(S(=O)(=O)c2cn(CC(=O)Nc3ccc4c(c3)OCO4)c3ccc(C)cc3c2=O)cc1 | inactive | 
39 | O=C1NNC(c2ccccc2)=N/C1=C\c1ccco1 | active: 17.8 µM | 
40 | CC(C)C(=O)Nc1ccc(NC(=O)c2cccs2)cn1 | inactive | 
41 | N#C/C(=C\c1cccc(F)c1)c1nc(-c2cc3ccccc3oc2=O)cs1 | inconclusive: 28.2 µM [inhibitor, single point] | 
42 | CCOC(=O)CNC(=O)CSc1ncnc2c1nnn2-c1ccc(F)cc1 | inconclusive: 8.91 µM [inhibitor, partial curve] | 
43 | Cc1ccccc1OCc1nnc(SCc2cc(=O)c3cc(F)ccc3[nH]2)n1C | inactive | 
44 | O=C(CN1C(=O)C2(SCC(=O)N2c2ccccc2)c2ccccc21)NCc1ccccc1 (stereo unspecified) | inactive | 
45 | Cc1cccc(N=Nc2c(N)n[nH]c2-c2ccc(Cl)cc2)c1 | inconclusive: 10 µM [inhibitor, partial curve] | 
46 | CCN(CC(=O)Nc1ccc(C)c(F)c1)CC(=O)NC(C)C | inactive | 
47 | Cc1ccc(/C=N/NC(=O)c2cccs2)cc1[N+](=O)[O-] | inconclusive: 7.94 µM [inhibitor, full curve] | 
48 | CCCSC1=N/C(=C/c2ccsc2)C(=O)N1c1ccccc1 | inactive | 

Row | SMILES | Potency | activity, negative = inhibition
49 | Cc1nn2c(NCCN3CCOCC3)c3c(nc2c1-c1ccccc1)CCCC3 | inactive | 
50 | N#C/C(=C\c1cccc(O)c1)C(=O)Nc1ccc2c(c1)OCCO2 | inconclusive: 5.01 µM [inhibitor, partial curve] | 
51 | Cc1c(Cl)cccc1NC(=O)Cn1nnc2sc3c(c2c1=O)CCCC3 | inactive | 
52 | Cn1c(N)c(C(=O)COC(=O)CSc2ccc3ccccc3c2)c(=O)n(C)c1=O | inconclusive: 25.1 µM [inhibitor, single point] | 
53 | O=C(c1cc2ccc3cccnc3c2[nH]1)N1CCN(c2ccc(Cl)cc2)CC1 | inconclusive: 3.16 µM [inhibitor, full curve] | 
54 | COc1ccccc1C(=O)Nc1cccc(C(=O)OCc2cc(=O)n3nc(C)sc3n2)c1 | inconclusive: 0.562 µM [inhibitor, full curve] | 
55 | CC(=O)OC1OCCOC1NC(=S)Nc1cccc(C(F)(F)F)c1 (stereo unspecified) | inactive | 
56 | Cc1cccc(N=Nc2cnc(N)s2)c1 | active: 5.01 µM | 
57 | Cc1oc2c(O)c(O)ccc2c(=O)c1-c1cnn(-c2ccccc2)c1 | inactive | 
58 | CCN(CC)S(=O)(=O)c1ccc(N=NC2=C(O)CCCC2=O)cc1 | inactive | 
59 | O=S(=O)(Nc1cccc(-c2cn3c(n2)SCC3)c1)c1cccs1 | inconclusive: 44.7 µM [inhibitor, single point] | 
60 | COc1ccc(C(=O)N(c2ccc(OC)cc2)S(=O)(=O)c2ccc3c(c2)n(C)c(=O)n3C)cc1 | inconclusive: 0.112 µM [inhibitor, full curve] | 
61 | O=C(/C=C/c1ccco1)NC(=S)Nc1ccccn1 | inconclusive: 35.5 µM [inhibitor, single point] | 
62 | O=C(CSc1nnnn1-c1ccccc1Cl)Nc1ccc2c(c1)OCCO2 | inconclusive: 28.2 µM [inhibitor, single point] | 
63 | Cc1ccc(C)c(OCC(=O)N/N=C\c2cccn2C)c1 | inconclusive: 11.2 µM [inhibitor, partial curve] | 
64 | Cc1ccc(C)c(N2CCN(CCCNC(=O)c3ccc4nc(N5CCCCC5)sc4c3)CC2)c1 | inconclusive: 28.2 µM [inhibitor, single point] | 
65 | CCCCCc1c2c(cc(O)c1C(=O)O)OC(=O)c1cc(C(=O)CCCC)c(OC)cc1O2 | inconclusive: 39.8 µM [inhibitor, single point] | 
66 | COc1ccc(/C=N/Nc2nc(C)c([N+](=O)[O-])c(N(C)c3ccccc3)n2)cc1OC | inconclusive: 25.1 µM [inhibitor, partial curve, poor fit] | 
67 | COc1ccccc1NC(=S)NC(=O)CCCOc1ccc(Cl)cc1Cl | inactive | 
68 | Cc1cccc(C)c1NS(=O)(=O)c1ccc(NS(=O)(=O)c2ccc3c(c2)OCCO3)cc1 | inconclusive: 20 µM [activator, single point] | 
69 | CCCc1[nH]n(-c2ccc([N+](=O)[O-])cc2)c(=O)c1C=NCCc1ccc(OC)c(OC)c1 | inconclusive: 3.55 µM [inhibitor, partial curve] | 
70 | O=C(Nc1noc2ccccc12)c1ccc(F)cc1 | inactive | 
